Experimental data published in publication PMC5741831, “Structural determinants for protein unfolding and translocation by the Hsp104 protein disaggregase” (Bioscience Reports, 2017).

Target: the molecule itself
Test: SEC; Superdex 200 10/300 GL, 25 mM Tris/HCl pH 7.5, 150 mM NaCl, 5% glycerol, 1 mM DTT; without nucleotide; oligomeric state of the protein with itself

Row | Protein | stoichiometry N | binding result
1 | Hsp104_(1D) (natural protein, Hsp104, S. cerevisiae, full length, loop-2 mutant with Asn292 changed to aspartate; source: E. coli BL21-CodonPlus (DE3)-RIL, purified (Ni-NTA, size-exclusion chromatography); not shown: His6, N-terminal, cleaved) not shown | 6 | –
2 | Hsp104_(Y257A) (natural protein, Hsp104, S. cerevisiae, full length, loop-1 mutant Y257A; also called Hsp104KAK; source: E. coli BL21-CodonPlus (DE3)-RIL, purified (Ni-NTA, size-exclusion chromatography); not shown: His6, N-terminal, cleaved) not shown | 6 | –
3 | Hsp104_(4D) (natural protein, Hsp104, S. cerevisiae, full length, all four loop-2 residues (291Gly-Asn-Gly-Lys294) replaced by aspartate; source: E. coli BL21-CodonPlus (DE3)-RIL, purified (Ni-NTA, size-exclusion chromatography); not shown: His6, N-terminal, cleaved) not shown | 6 | –
4 | Hsp104GAG (natural protein, Hsp104, S. cerevisiae, full length, loop-1 mutant with the 256Lys-Tyr-Lys258 tripeptide changed to Gly-Ala-Gly; source: E. coli BL21-CodonPlus (DE3)-RIL, purified (Ni-NTA, size-exclusion chromatography); not shown: His6, N-terminal, cleaved) not shown | 6 | –
5 | Hsp104GYG (natural protein, Hsp104, S. cerevisiae, full length, loop-1 mutant with Lys256 and Lys258 changed to glycine; source: E. coli BL21-CodonPlus (DE3)-RIL, purified (Ni-NTA, size-exclusion chromatography); not shown: His6, N-terminal, cleaved) not shown | 6 | –
6 | Hsp104_(4G) (natural protein, Hsp104, S. cerevisiae, full length, loop-2 (291Gly-Asn-Gly-Lys294) replaced by four glycines; source: E. coli BL21-CodonPlus (DE3)-RIL, purified (Ni-NTA, size-exclusion chromatography); not shown: His6, N-terminal, cleaved) not shown | 6 | –
7 | Hsp104_(V663G) (natural protein, Hsp104, S. cerevisiae, full length, loop-3 mutant V663G; source: E. coli BL21-CodonPlus (DE3)-RIL, purified (Ni-NTA, size-exclusion chromatography); not shown: His6, N-terminal, cleaved) not shown | – | binds
8 | Hsp104_(4A) (natural protein, Hsp104, S. cerevisiae, full length, loop-2 (291Gly-Asn-Gly-Lys294) replaced by four alanines; source: E. coli BL21-CodonPlus (DE3)-RIL, purified (Ni-NTA, size-exclusion chromatography); not shown: His6, N-terminal, cleaved) not shown | 6 | –
